We go through 26 molecules from PubChem BioAssay AID1159614 (National Center for Advancing Translational Sciences (NCATS), 2016).

About 65 (0.1%) of roughly 45,000 compounds were called active. Calls come from the whole dose curve; as a rule, active = well fitted activation curve with a large enough effect; inconclusive = small, poorly fitted or top-dose-only effect; inactive = no such curve, though single readings can be large or run the other way. The list shows a part of the results.

The experiment has as its target Galactocerebrosidase (Homo sapiens) (UniProt P54803). Nature of the experiment: A Novel Cell-Based Assay to Identify Small Molecules for B -Galactocerebrosidase. Note: 0% is about no effect; nearly all actives have a fitted effect of over 65% in size. The following applies: 145M-Twi-hGALC-G270D cells (Twitcher mouse brain line with human GALC G270D), HMU-beta-Gal fluorescence, 48 h; series mostly up to 57.5 µM; activation: at the top concentration. In a few lines: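 Fluorescence readout: HMU-β-gal cleavage by mutant GALC (0.1 mM final, citrate/phosphate pH 5.2 with 1 mg/mL taurocholate), stopped with carbonate/bicarbonate plus Triton X-100. Cells: murine Twitcher 145M-Twi expressing human G270D GALC; qHTS for activators.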
For the molecule `Cc1c(C(=O)NCc2ccccc2)oc2c1-c1[nH]ncc1CC2`, the “activation” value is inactive: -9.99%.
For `CCOc1ccccc1C1Nc2ccccc2-c2nnc(SCc3ccccc3)nc2O1` (stereo unspecified) the value was inactive: -8.18%; for `COc1ccc(Br)cc1CNC(=O)c1ccc(-n2c(C)cc3c2CCC(C)C3)cc1` (stereo unspecified), inactive: -28.5%; for `Cc1cccc(C(=O)Nc2nnc(S(=O)(=O)N3c4ccccc4CC3C)s2)c1` (stereo unspecified), inactive: -7.04%.
For `Cc1cc(O)c(CN2CCN(c3ccc(F)cc3)CC2)c2oc(=O)cc(C)c12` the value was inactive: -22.7%.
The figure for `COCCCn1c(=N)c(C(=O)NC2CCCC2)cc2c(=O)n3cc(C)ccc3nc21` is inactive: -3.72%; for `CCOc1ccc(-c2nnc(SCC(=O)NCCc3ccccc3)nc2-c2ccc(OCC)c(OC)c2)cc1OC` it is inactive: -16.6%.
For `CCCN(C(=O)Cn1nc(Cc2ccncc2)c2ccccc2c1=O)c1ccccc1C`, the “activation” value is inactive: -10.2%.
For `CC(=O)N1CCCc2cc(S(=O)(=O)N3CCCC(C(=O)Nc4ccc(C)c(C)c4)C3)ccc21` (stereo unspecified) the value was inactive: -8.29%.
The figure for `CC(C)(C)c1ccc(S(=O)(=O)Nc2ccc(O)c(Sc3nc4ccccc4s3)c2)cc1` is inactive: -17.1%.
The figure for `CCOc1ccccc1NC(=O)c1cc(S(=O)(=O)NC2CCCC2)ccc1F` is inactive: 1.85%; for `Cc1ccc(C(=O)Nc2ccc3oc(-c4cccnc4)nc3c2)c(Cl)c1` it is inactive: -10.7%; for `COc1cccc(-c2cnc(NCc3ccccc3Cl)n2C)c1` it is inactive: -8.41%.
Turning to `Cc1coc2cc3oc(=O)c(CC(=O)NCc4ccccc4)c(C)c3cc12`, the “activation” value is inactive: -5.94%.
For `Cc1ccc(S(=O)(=O)Nc2cc3c(cc2Cl)n(C)c(=O)c(=O)n3C)cc1` the value was inactive: -11.6%.
The figure for `Cc1ccc(C)c(N2CCN(C(=O)c3cc4c(=O)n(Cc5cccs5)ccc4nc3C)CC2)c1` is inactive: -17.6%; for `CCOc1ccc2nc(N3CCC(C(=O)Nc4c(C)cccc4C)CC3)sc2c1` it is inactive: -16.1%; for `Cc1ccc(-n2ncc(C(=O)N3CCC(c4ccccc4)C3)c2C2CCN(C(=O)OC(C)(C)C)CC2)cc1` (stereo unspecified) it is inactive: -15.1%.
Regarding `CCCCOc1ccc(CNC(=O)c2ccc(NC(=O)N3CCSc4ncccc43)cc2)cc1`, the “activation” value was inactive: 2.23%.
`CCOc1cc(NC(C)=O)ccc1C(=O)OC`: the “activation” value is inactive: -16.3%.
As for `Cc1ccc(C)c(CN2C(=O)c3ccccc3S(=O)c3ccc(C(=O)N(C)Cc4ccccc4)cc32)c1` (stereo unspecified), the “activation” value was inactive: -8.41%.
The figure for `O=c1[nH]cc(F)c(=O)[nH]1` is inactive: -12.8%; for `Cc1cccc(N2CCN(C(=O)C3CCN(S(=O)(=O)c4ccc5c(c4)oc(=O)n5C)CC3)CC2)c1C` it is inactive: -41.8%; for `COC(=O)CCN(C(=O)c1c(C)oc2ncnc(N3CCOCC3)c12)c1ccccc1` it is inactive: -3.37%.
For `O=c1c2c3c(sc2n(Cc2cc(=O)n4ccccc4n2)c(=O)n1-c1ccc(Cl)cc1)CCC3` the value was inactive: -13%; for `Cc1cc(C)c2oc(C(=O)Nc3ccc(S(=O)(=O)N(C)c4ccccc4)cc3)cc(=O)c2c1`, inactive: -13%.
